Data as given in PubChem BioAssay AID881 (National Center for Advancing Translational Sciences (NCATS), 2007).
About 610 (0.55%) of roughly 110,000 compounds were called active. The inconclusive results got no clear call from the source; some entries with a clear call stand among them for comparison. Calls come from the whole dose curve; as a rule, active = well fitted inhibition curve with a large enough effect; inconclusive = small, poorly fitted or top-dose-only effect; inactive = no such curve, though single readings can be large or run the other way. Where the call is inconclusive, the potency comes from a doubtful curve fit.

Target: Polyunsaturated fatty acid lipoxygenase ALOX15B (Homo sapiens) (UniProt O15296)
Experiment: qHTS Assay for Inhibitors of 15-hLO-2 (15-human lipoxygenase 2); note: nearly all actives have a fitted effect of over 60% in size
Conditions: purified 15hLO-2, xylenol orange hydroperoxide absorbance; activity change, negative = inhibition: at 57.1 µM (top of the series) unless noted
Procedure, shortened: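 Enzyme 50 nM, AA 45 uM, 25 mM Hepes pH 7.5 + 0.01% Triton X-100; cpd preinc 15 min RT, rxn 90 min RT; stop/detect with 200 uM XO + 300 uM Fe(II) in 50 mM H2SO4, 30 min; A573/A405.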
% is set by controls: 0 for no effect and ±100 for the full control effect; potency is the fitted concentration of half-maximal effect; tags give direction and shape of the fitted curve.

Sequence of UniProt O15296 (O15296 whole entry, looked up): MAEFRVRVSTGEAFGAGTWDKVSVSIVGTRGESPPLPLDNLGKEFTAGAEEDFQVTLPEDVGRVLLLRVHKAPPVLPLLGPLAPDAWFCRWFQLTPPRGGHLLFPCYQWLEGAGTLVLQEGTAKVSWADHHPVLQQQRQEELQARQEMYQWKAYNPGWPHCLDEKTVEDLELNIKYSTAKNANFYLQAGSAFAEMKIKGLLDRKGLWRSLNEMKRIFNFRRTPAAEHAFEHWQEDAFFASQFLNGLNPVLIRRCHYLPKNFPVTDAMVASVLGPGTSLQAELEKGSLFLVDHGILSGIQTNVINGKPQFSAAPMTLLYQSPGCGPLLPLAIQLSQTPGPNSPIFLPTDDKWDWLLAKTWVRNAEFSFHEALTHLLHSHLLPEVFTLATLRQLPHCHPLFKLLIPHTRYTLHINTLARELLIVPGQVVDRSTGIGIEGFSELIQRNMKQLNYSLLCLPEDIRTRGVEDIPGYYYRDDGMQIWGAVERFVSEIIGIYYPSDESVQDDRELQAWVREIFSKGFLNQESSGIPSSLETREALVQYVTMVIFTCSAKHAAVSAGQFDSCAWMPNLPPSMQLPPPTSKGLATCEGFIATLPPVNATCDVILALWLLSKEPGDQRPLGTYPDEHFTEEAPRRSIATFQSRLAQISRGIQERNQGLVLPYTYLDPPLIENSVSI

SMILES	Potency	activity change, negative = inhibition
NC(=S)Nc1ccc(Oc2ccc(NC(N)=S)cc2)cc1	inconclusive: 25.1 µM [inhibitor, single point]	–
Cc1ccccc1-c1nc(Nc2ccncc2)c2ccccc2n1	inconclusive: 39.8 µM [inhibitor, single point]	–
Cc1cc(C)c(C)c(/C=C(/C#N)C(N)=S)c1C	inconclusive: 15.8 µM [inhibitor, partial curve]	–
Cc1ccc(S(=O)(=O)NC(=O)c2cc(C)n(-c3cc(S(=O)(=O)N4CCOCC4)ccc3N3CCCC3)c2C)cc1	inconclusive: 25.1 µM [inhibitor, single point]	–
O=C(COC(=O)CCC(=O)c1cccs1)NCc1ccco1	inconclusive: 25.1 µM [inhibitor, single point]	–
COc1ccc(C(=O)NNc2ccccc2)cc1OC	inconclusive: 2.51 µM [inhibitor, full curve]	–
FC(F)(F)c1ccccc1-c1nc(NC2CCNCC2)c2ccccc2n1	–	inactive: 33.6%
O=C1CC(c2ccccc2)NC(=O)N1 (stereo not drawn)	–	inactive: -1.85%
COc1ccc(C2=NN(CN3C(=O)C(=O)c4ccccc43)C(c3ccc(C)cc3)C2)cc1 (stereo not drawn)	inconclusive: 10 µM [inhibitor, partial curve]	–
CC(/C=N/n1c(-c2cccnc2)n[nH]c1=S)=C\c1ccccc1	inconclusive: 3.16 µM [inhibitor, full curve, poor fit]	–
ClC(=Nc1cccc2ccccc12)N(c1ccccc1)c1ccccc1	–	inactive: -11.1% [at 11.4 µM]
Cc1ccc(C2CC2c2n[nH]c(=S)n2-c2ccc(C)cc2)cc1 (stereo not drawn)	inconclusive: 10 µM [inhibitor, partial curve]	–
CCCCC(=O)N(CCOC)c1nnc(-c2ccc(OC)cc2)s1	–	inactive: 8.67%
Cc1ccc(S(=O)(=O)NC2(C(F)(F)F)NC(=O)N(C)C2=O)cc1 (stereo not drawn)	–	inactive: 2.47%
O=C(O)c1ccccc1C(=O)Nc1ccc(S(=O)(=O)Nc2nccs2)cc1	inconclusive: 15.8 µM [inhibitor, single point]	–
Cc1cc(NC(=O)CSc2nc3c(c(-c4cccnc4)c2C#N)CCC3)no1	–	inactive: 3.43%
CS(=O)(=O)c1cc([N+](=O)[O-])c(Sc2nc3ccccc3[nH]2)c([N+](=O)[O-])c1	inconclusive: 15.8 µM [inhibitor, partial curve]	–
O=c1c2c3nc4ccccc4nc3n(Cc3ccccc3)c2ncn1Cc1ccco1	inconclusive: 39.8 µM [inhibitor, single point]	–
COc1ccc2c3c([nH]c2c1)[C@H]1C[C@@H]2[C@@H](C[C@@H](O)[C@H](OC)[C@H]2C(=O)O)CN1CC3	–	inactive: -7.4% [at 11.4 µM]
CC1CCCN(CCC(=O)c2ccc(Br)cc2)C1 (stereo not drawn)	inconclusive: 2.51 µM [inhibitor, partial curve]	–
C=CCN1C(=O)C(O)(CC(=O)c2ccc(-n3cccc3)cc2)c2ccccc21 (stereo not drawn)	inconclusive: 20 µM [inhibitor, single point]	–
COc1ccc(C2C(C(C)=O)=C(C)N=c3s/c(=C\c4ccco4)c(=O)n32)c(OC)c1 (stereo not drawn)	inconclusive: 39.8 µM [inhibitor, single point]	–
Cc1cccc(OCC(=O)Nc2ccc(S(=O)(=O)N3CCCC3)cc2)c1	inconclusive: 20 µM [inhibitor, partial curve]	–

SMILES	Potency	activity change, negative = inhibition
O=C(NNc1ccccc1[N+](=O)[O-])Nc1ccccc1	inconclusive: 6.31 µM [inhibitor, partial curve]	–
CCOc1ccc2c(c1)-c1c(ssc1=S)C(C)(C)N2	inconclusive: 12.6 µM [inhibitor, partial curve]	–
O=C(N/N=C/c1ccc(-c2ccc(S(=O)(=O)Nc3ncccn3)cc2)o1)c1cc2ccccc2cc1O	inconclusive: 15.8 µM [inhibitor, partial curve]	–
Cc1ccc(N2C(=O)C(Cl)=C(NCc3ccccc3)C2=O)c(C)c1	inconclusive: 10 µM [inhibitor, partial curve]	–
Cc1cc(C)c2cccc(NC(=S)NC(=O)c3ccccc3)c2n1	inconclusive: 25.1 µM [inhibitor, single point]	–
O=C(CCCOc1ccccc1)Nc1nnc(C2CCCO2)s1 (stereo not drawn)	inconclusive: 20 µM [inhibitor, partial curve]	–
COc1ccc(N2CSC3=C(C#N)C(c4cccc(OC)c4OC)CC(=O)N3C2)cc1 (stereo not drawn)	active: 12.6 µM	–
O=C(CSc1nnc(-c2ccccc2Cl)n1Cc1ccco1)Nc1ccc2c(c1)OCCO2	–	inactive: -2.28%
Cc1ccc2c(c1)-c1c(ssc1=S)C(C)(C)N2C(=O)CSC1=NCCS1	inconclusive: 25.1 µM [inhibitor, single point]	–
C=CC(C)(C)c1[nH]c2ccccc2c1C1=C(O)C(=O)C(c2c[nH]c3c(CC=C(C)C)cccc23)=C(O)C1=O	inconclusive: 39.8 µM [inhibitor, single point]	–
CCc1cc2c(=O)c(Oc3ccccc3F)c(C)oc2c(CN(C)C)c1O	inconclusive: 0.316 µM [inhibitor, full curve, poor fit]	–
Cn1cc(/C=C2/SC(=O)N(CC(=O)Nc3ccc4c(c3)OCO4)C2=O)c2ccccc21	inconclusive: 20 µM [inhibitor, partial curve]	–
COc1cccc(-c2nc(N(C)C)c3ccccc3n2)c1	inconclusive: 31.6 µM [inhibitor, single point]	–
COC(=O)[C@@H]1C[C@H]1[C@@H](NC(=O)c1cccnc1)c1ccccc1	–	inactive: 3.75%
CCCCCCCCOC(=O)CCc1c(C)[nH]c(=S)[nH]c1=O	inconclusive: 7.94 µM [inhibitor, partial curve]	–
COc1ccc2cc(-c3cc(C(=O)O)c4ccccc4n3)ccc2c1	inconclusive: 25.1 µM [inhibitor, partial curve, poor fit]	–
CCCOc1ccc(N)cc1N	inconclusive: 20 µM [inhibitor, partial curve, poor fit]	–
CCNC(=S)NN=C1CCC(C(C)(C)C)CC1 (stereo not drawn)	inconclusive: 15.8 µM [inhibitor, partial curve]	–
COc1ccc(C2=NOC(C(=O)Nc3cc(Br)ccc3O)C2)cc1OC (stereo not drawn)	–	inactive: -13.6%
N#Cc1c(N)sc2c1CCCCCC2	inconclusive: 31.6 µM [inhibitor, single point]	–
Cc1cc(=O)oc2cc(O[C@@H]3O[C@H](C(=O)O)[C@@H](O)[C@H](O)[C@H]3O)ccc12	–	inactive: 3.8%
Cc1ccc([N+](=O)[O-])cc1-c1ccc(/C=N/NC(=O)c2cc3c(ccc4ccccc43)o2)o1	inconclusive: 10 µM [inhibitor, partial curve]	–
O=[N+]([O-])c1cc(-c2cnc3ccccc3n2)ccc1Oc1ccc(Br)cc1	–	inactive: 3.96%

SMILES	Potency	activity change, negative = inhibition
O=C(N/N=C/c1cccc(F)c1)c1cc(-c2ccco2)nc2ccccc12	inconclusive: 10 µM [inhibitor, partial curve]	–
Cc1ccc(OCc2nnc(SCC(=O)N3CCOCC3)n2C)cc1	–	inactive: -2.39%
CCc1ccc(CSc2nccn2-c2ccccc2)cc1	inconclusive: 31.6 µM [inhibitor, partial curve]	–
Cn1c(=O)[nH]c(=O)c2c1nc(N1CCOCC1)n2CCSc1nc2ccccc2[nH]1	–	inactive: -3.11%
COc1ccc(OC)c(/C=N/c2oc(-c3ccco3)c(-c3ccco3)c2C#N)c1	inconclusive: 25.1 µM [inhibitor, partial curve]	–
Nc1cccc(S(=O)(=O)O)c1	–	inactive: -13.4%
CN(C)c1ccc(NC(=O)c2sc(SCC(=O)Nc3nccs3)nc2N)cc1	inconclusive: 25.1 µM [inhibitor, partial curve]	–
CCCC(=O)Nc1ccc(NC(=O)c2cccc(OC)c2)nc1	–	inactive: -0.742%
O=[N+]([O-])c1ccc(NCCCNS(=O)(=O)c2ccc(Cl)cc2)c(Cl)c1	inconclusive: 15.8 µM [inhibitor, partial curve]	–
COc1ccc(Cl)cc1-c1n[nH]c(=S)o1	–	inactive: 1.32%
Cc1cc(C)c2nc(N3CCCC(C(=O)NCCCN4CCOCC4)C3)sc2c1 (stereo not drawn)	–	inactive: 26.7%
COc1ccc(-c2nc(-c3ccc(Br)o3)no2)cc1OC	inconclusive: 39.8 µM [inhibitor, single point]	–
COc1ccc(N2C(=O)/C(=C/c3ccc([N+](=O)[O-])cc3)C=C2c2ccccc2)cc1	inconclusive: 25.1 µM [inhibitor, partial curve]	–
OCCO	–	inactive: -0.537%
CCOc1ccc(N2C(=O)C3C4C=CC(CC4)C3C2=O)c([N+](=O)[O-])c1 (stereo not drawn)	inconclusive: 20 µM [inhibitor, partial curve]	–
CCOC(=O)c1c(C)[nH]c(=S)c(C#N)c1-c1ccc(OC)cc1	inconclusive: 12.6 µM [inhibitor, partial curve]	–
CC(=O)C(Sc1nn(C)c(=S)s1)C(=O)Nc1ccccc1 (stereo not drawn)	inconclusive: 25.1 µM [inhibitor, single point]	–
O=C(N/N=C/c1ccc(F)cc1)c1cc(-c2ccco2)nc2ccccc12	inconclusive: 25.1 µM [inhibitor, single point]	–
CC1=NN2C(=N)/C(=C\c3ccc(SCc4ccccc4)o3)C(=O)N=C2S1	inconclusive: 25.1 µM [inhibitor, single point]	–
NC(=O)SCC(=O)Nc1ccc(Cl)cc1	inconclusive: 7.94 µM [inhibitor, partial curve]	–
Cc1cccc(N2CSC3=C(C#N)C(c4ccc(C)o4)CC(=O)N3C2)c1 (stereo not drawn)	inconclusive: 10 µM [inhibitor, partial curve]	–
O=C(CSc1oc(-c2cccs2)nc1S(=O)(=O)c1ccccc1)NC1CCCCC1	inconclusive: 39.8 µM [inhibitor, single point]	–
